In all, about 350,000 compounds went through this assay and about 9,900 (2.8%) were called active. The shares of active, inactive and inconclusive entries below differ from those in the screen. The call rests on the fitted dose curve; in most records, active means well fitted activation curve with a large enough effect; inconclusive means small, poorly fitted or top-dose-only effect; inactive means no such curve, though single readings can be large or run the other way. No potency is given beside an inconclusive call; the fits are too rough.
Assay: A quantitative high throughput screen for small molecules that induce DNA re-replication in MCF 10a normal breast cells. Further: nearly all actives have a fitted effect of over 50% in size. On activity, positive = re-replication: % of control where 0% means no effect.
Conditions: MCF 10A DNA re-replication, Hoechst nuclear intensity, 48 h; activity, positive = re-replication: at 46.1 µM (top of the series)
For `CC(C)(COP(=O)(O)OP(=O)(O)OC[C@H]1O[C@@H](n2cnc3c(N)ncnc32)[C@H](O)[C@@H]1OP(=O)(O)O)C(O)C(=O)NCCC(=O)NCCS` (some centres undefined), the “activity, positive = re-replication” value was inactive: 1.72%. In the case of `OC(CN1CCOCC1)C12CC3CC(CC(C3)C1)C2` (centres undefined), the “activity, positive = re-replication” value is reported as inactive: -1.28%. For `O=C(Nc1cccc(S(=O)(=O)N2CCCCC2)c1)c1ccccc1NS(=O)(=O)c1ccc(F)cc1`, the Potency was inconclusive [activator, partial curve, poor fit]. With `Cc1ccc(C(=O)c2coc3ccc(O)c(CN4CCN(C)CC4)c23)cc1` the Potency was inconclusive [activator, partial curve, poor fit]. For `CCc1ccc(-c2cc3c(=O)n(CC(=O)N4CCCC4)nc(C)n3n2)cc1`, the Potency was inconclusive [activator, partial curve, poor fit]. With `CCOC(=O)C1(N(CC)CC)Sc2cc(C)ccc2NC1=O` (centres undefined) the Potency was inconclusive [activator, single point]. For `Cc1ccc(-c2c3c(nc4sc(C(N)=O)c(N)c24)CCC3)cc1`, the Potency was active: 11.6 µM. With `N/C(=N\OC(=O)c1cccc2ccccc12)c1ccc(Br)cc1` the “activity, positive = re-replication” value was inactive: 4.14%. In the case of `COCCNc1oc(/C=C/c2ccccc2OC)nc1S(=O)(=O)c1ccccc1`, the Potency is reported as active: 20.6 µM. For `CC1CN(CCCCOc2ccc3ccccc3c2)CC(C)O1` (centres undefined), the Potency was inconclusive [activator, single point]. With `CCN(c1cccc(C)c1)S(=O)(=O)c1ccc2c(c1)CCN2C(C)=O` the Potency was inconclusive [activator, single point]. With `O=[N+]([O-])c1ccc(NN=Cc2cccc(O)c2)nc1` the Potency was active: 16.4 µM. With `COc1ccccc1C1CCN(Cc2ccc(Cl)c(Cl)c2)CC1` the Potency was inconclusive [activator, single point]. For `Cc1ccc(NC(=O)c2oc3ccc(S(=O)(=O)N4CCC5(CC4)OCCO5)cc3c2C)cc1C`, the “activity, positive = re-replication” value was inactive: 3.37%. For `CC(=O)Nc1ccc(NC(=O)Cc2ccc(-c3ccccc3)cc2)cc1`, the “activity, positive = re-replication” value was inactive: 8.18%. In the case of `O=C(NC1(O)C(=O)c2ccccc2C1=O)c1c(Cl)cccc1Cl`, the Potency is reported as inconclusive [activator, single point]. For `Cc1cc(C)c(NC(=O)COC(=O)c2cccc3c2C(=O)c2ccccc2C3=O)c(C)c1`, the Potency was inconclusive [activator, partial curve, poor fit]. In the case of `COc1ccc(NC(=O)CCCNC(=O)c2ccc(Cl)cc2)cc1OC`, the Potency is reported as inconclusive [activator, full curve, poor fit]. For `O=[N+]([O-])c1ccc(SCCc2ccncc2)cc1`, the Potency was inconclusive [activator, full curve, poor fit].

Source: PubChem BioAssay AID624296 (National Center for Advancing Translational Sciences (NCATS), 2012)
Potency means the concentration at half of the fitted maximal effect; tags describe the fitted curve by direction and shape.
